The whole screen tested about 310,000 compounds, of which about 2,200 (0.71%) showed an effect of 50% or more. Effects have a minus sign here. The list shows a part of the results.
The molecules below were run against human ether-à-go-go-related gene (hERG) potassium channel (human, UniProt Q12809) (assay: primary screen, population patch clamp on CHO cells stably expressing hERG).
human ether-à-go-go-related gene (hERG) potassium channel, sequence (Q12809 whole entry, looked up): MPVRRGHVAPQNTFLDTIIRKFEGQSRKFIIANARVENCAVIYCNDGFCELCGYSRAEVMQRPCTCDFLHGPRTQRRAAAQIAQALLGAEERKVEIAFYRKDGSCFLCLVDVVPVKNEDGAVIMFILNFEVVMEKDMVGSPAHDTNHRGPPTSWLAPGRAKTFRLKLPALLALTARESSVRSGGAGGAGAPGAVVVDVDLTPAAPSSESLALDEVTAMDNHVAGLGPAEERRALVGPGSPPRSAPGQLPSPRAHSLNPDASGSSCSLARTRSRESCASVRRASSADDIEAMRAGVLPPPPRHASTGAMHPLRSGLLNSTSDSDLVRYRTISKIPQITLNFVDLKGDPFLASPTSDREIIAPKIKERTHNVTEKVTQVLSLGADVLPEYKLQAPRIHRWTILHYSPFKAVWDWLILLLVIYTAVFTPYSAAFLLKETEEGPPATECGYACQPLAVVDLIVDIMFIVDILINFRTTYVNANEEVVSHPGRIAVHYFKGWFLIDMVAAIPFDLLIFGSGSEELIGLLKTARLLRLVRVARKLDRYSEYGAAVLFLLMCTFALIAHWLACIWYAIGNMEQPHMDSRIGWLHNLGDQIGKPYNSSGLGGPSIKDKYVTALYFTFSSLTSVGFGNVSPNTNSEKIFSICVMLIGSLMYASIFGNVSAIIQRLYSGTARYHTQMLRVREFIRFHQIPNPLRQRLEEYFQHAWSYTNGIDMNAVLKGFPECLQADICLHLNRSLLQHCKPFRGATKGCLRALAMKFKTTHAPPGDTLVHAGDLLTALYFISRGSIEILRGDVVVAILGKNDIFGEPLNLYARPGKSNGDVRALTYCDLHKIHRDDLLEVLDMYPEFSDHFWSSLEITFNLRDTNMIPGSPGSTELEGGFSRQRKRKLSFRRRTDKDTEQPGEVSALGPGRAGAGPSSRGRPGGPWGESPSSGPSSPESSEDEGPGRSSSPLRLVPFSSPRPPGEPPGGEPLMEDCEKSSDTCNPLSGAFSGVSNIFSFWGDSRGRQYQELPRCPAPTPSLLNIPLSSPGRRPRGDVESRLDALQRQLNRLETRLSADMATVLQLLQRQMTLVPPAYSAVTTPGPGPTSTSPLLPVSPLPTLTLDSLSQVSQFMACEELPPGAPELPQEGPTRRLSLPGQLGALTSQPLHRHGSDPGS

| SMILES | hERG current change (%, negative = inhibition) at 1uM |
| --- | --- |
| CCOc1ccc(NC(=O)C2=C(C)NC(=S)NC2c2ccc(O)c(OC)c2)cc1 (stereo not drawn) | 12.7% |
| O=C(NCc1cccc(Cl)c1)C1CCN(S(=O)(=O)c2ccc(F)cc2)CC1 | 3.5% |
| CCC(C)(C)NC(=O)C1CCN(c2nc(C)cc(C)n2)CC1 | 15.1% |
| Cl.NC(N)=NC(N)=Nc1cccc(Cl)c1 | 3.28% |
| Cl.OC(CNCc1cccc(Br)c1)c1ccccc1 (stereo not drawn) | -16.7% |
| Cc1ccc(C(=O)NN(C)c2nc3ccccc3nc2C(F)(F)F)cc1 | 8.23% |
| COc1ccc(/C=C/C(=O)NCC(c2ccc(F)cc2)N2CCOCC2)cc1OC (stereo not drawn) | 9.02% |
| COC(=O)CNC(c1ccccc1)c1cc(Br)ccc1NC(=O)CCN1CCOCC1 (stereo not drawn) | -2.25% |
| O=C1Cc2ccccc2C(=O)N1c1ccccc1 | 5.39% |
| Nn1c(=O)c2ccccc2n2c(SCc3ccccc3)nnc12 | -15.8% |
| CCC1=C2CC[C@H]3C(=O)NC(=O)[C@H]3[C@H]2[C@@]2(Cc3ccccc3)C(=NCC(=O)OC)OC(=O)N2C1=O | 11.5% |
| CCN(CC)C(=O)CSc1nc2cc3c(cc2c(=O)n1Cc1ccc(OC)cc1)OCO3 | 7.98% |
| COc1ccccc1CCNC(=O)c1cnn2c(C(F)F)cc(C)nc12 | 1.73% |
| COc1cccc(/C=N/NC(=O)CN2CC(c3ccccc3)CC2=O)c1OC (stereo not drawn) | 5.33% |
| O=C(O)CCC(=O)/C=C/c1ccccc1 | -2.05% |
| Cc1ccc(NC(=O)C2CCN(C(=O)[C@@H]3Cc4ccccc4CN3)CC2)c(C)c1 | -3.96% |
| NC(=O)CN1C(=O)C(O)(CC(=O)c2ccccc2O)c2ccccc21 (stereo not drawn) | 6.9% |
| Cl.OCCN(CCO)c1nc(-c2ccccc2)nc2c1oc1ccccc12 | 12.6% |
| CCOC(=O)c1cc(-c2ccco2)nc2c1c(C)nn2-c1cccc(Cl)c1 | 10.9% |

| SMILES | hERG current change (%, negative = inhibition) at 1uM |
| --- | --- |
| O=C(Oc1cccnc1)c1ccc([N+](=O)[O-])cc1Cl | 0.363% |
| CCc1ccc(NC2=NCCCS2)cc1 | 5.76% |
| COC(=O)C1CC(O)CN1S(=O)(=O)c1cccs1 (stereo not drawn) | 8.52% |
| Cc1c(NC(=O)Nc2ccc(C#N)cc2)c(=O)n(-c2ccccc2)n1C | 4.52% |
| COC(=O)C1C(=O)NCC1c1ccc(OC)cc1 (stereo not drawn) | 5.98% |
| O=C(Cn1c(=O)n2ncnc2c2c3c(sc21)CCCC3)c1ccccc1 | -6.45% |
| O=C(Cc1cccs1)Nn1c(Cc2cccs2)nc2ccccc2c1=O | 18.7% |
| CN1C(C)(C)CC(=NOC(=O)c2ccccc2)CC1(C)C | -6.15% |
| CC(C)(C)[C@@H]1C=C(C(=O)O)O[C@H](OCc2ccc(CO)cc2)C1 | 10.5% |
| Cc1c(NC(=S)N/N=C/c2ccc(O)cc2)c(=O)n(-c2ccccc2)n1C | 10.3% |
| O=C(NC1CC2CCC(C1)N2Cc1ccco1)c1ccccc1 (stereo not drawn) | -4.4% |
| Nc1c2c(nc3sc4c(c13)CCCC4)CCCCCC2 | -2.18% |
| O=C1/C(=C/c2ccncc2)Oc2cc(OS(=O)(=O)c3ccccc3)ccc21 | 10% |
| CC(C)Cc1ccc(S(=O)(=O)N2CCN(c3ccccn3)CC2)cc1 | 14.5% |
| O=C(CC1C(=O)N(c2ccccc2)C(=S)N1c1ccccc1)c1ccc(Br)cc1 (stereo not drawn) | 23.3% |
| NC(=O)CSc1nnc2sc3ccccc3n12 | 2.33% |
| O=C(NCC(=O)N(Cc1ccco1)C(C(=O)NC1CCCC1)c1cccnc1)c1ccco1 (stereo not drawn) | 8.21% |
| CCNc1nc(Nc2ccc(C)c(Cl)c2)c2cnn(C)c2n1 | 11.6% |
| COC(=O)C1=C(C)NC2=C(C(=O)CCC2)C1c1cn(Cc2ccc(Cl)cc2Cl)nc1-c1ccccc1 (stereo not drawn) | 6.08% |

| SMILES | hERG current change (%, negative = inhibition) at 1uM |
| --- | --- |
| COc1ccc(C2C3=C(N=C4SCC(=O)N42)c2ccccc2CC3)cc1OC (stereo not drawn) | 1.06% |
| CSc1ccccc1OCc1cc(C(=O)NCCN2CCCc3ccccc32)no1 | 13.1% |
| CCOc1ccc2nc(-c3ccc(OC)c(OC)c3)cc(C(=O)O)c2c1 | 15.4% |
| Cc1ccc(COC(=O)c2nn(-c3ccccc3)nc2N)cc1 | 4.86% |
| O=C(CNCc1ccncc1)Nc1cc(S(=O)(=O)N2CCCCC2)ccc1Cl | -9.39% |
| Brc1cccc(-c2nnc(SCc3nc4ccccc4[nH]3)o2)c1 | 3.25% |
| Nc1nc(SCC(=O)O)[nH]c(=O)c1NC(=O)c1ccco1 | 8.65% |
| COc1cc(CNC2CCCC2)c(Br)cc1OCc1ccccc1.Cl | -8.41% |
| O=S(=O)(Nc1ccc(N2CCCCC2)cc1)c1ccc(F)cc1 | 13.2% |
| CC12CCC(=O)N1C(C(=O)NCCc1ccc(S(N)(=O)=O)cc1)CS2 (stereo not drawn) | 18.7% |
| COC(=O)Cn1cnc2sc(C)c(S(=O)(=O)N3CCC(C)CC3)c2c1=O | 12.2% |
| CCCCCCC1CC(=O)NC(=S)N1 (stereo not drawn) | 8.17% |
| CCCCC1OC23CCCCC2C(C#N)(C(=N)O3)C1(C#N)C#N (stereo not drawn) | 4.59% |
| COc1ccc(C(=O)C(OC(=O)c2ccccc2)c2ccccc2)cc1 (stereo not drawn) | 2.14% |
| COc1ccc(NC(=O)C2CCCN(S(=O)(=O)c3ccc(Cl)cc3)C2)cc1OC (stereo not drawn) | 10.9% |
| Cc1ccc(C(=O)NCCCNCCCNC(=O)c2ccc(C)nc2)cn1 | -10.3% |
| O=C(NCc1ccccn1)C(=O)NCC(c1ccco1)N1CCN(c2ccc(F)cc2)CC1 (stereo not drawn) | -1.46% |
| CCOc1ccccc1N1CCN(C(=O)c2csc(C)c2CC)CC1 | 6.98% |
| CCCNC(=O)OC[C@H]1O[C@H](CCO/N=C/[C@@H](OC)[C@H](C)/C=C/CC(=O)OC)C=C[C@@H]1Oc1ccc(OC)cc1 | 10.1% |
